# This is one part of the list. The main result of the screen is listed elsewhere. These columns were measured beside it and carry no call.
# Tests used:
# Assay in all cases: Primary Screen for Target Class Profiling of Small Molecule Inhibitors of Methyltransferases
# [1] = target: Glycine N-methyltransferase (Homo sapiens) (UniProt Q14749); conditions: purified enzyme, MTase-Glo SAH luminescence; measured here: GNMT inhibition; at 40 µM; stronger effect = lower value
# How it was run: (§1)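 Each enzyme was reacted with SAM and its substrate, with compounds tested once at 40 uM; SAH formed was read by MTase-Glo luminescence.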
# [2] = target: Guanidinoacetate N-methyltransferase (Homo sapiens) (UniProt Q14353); conditions: purified enzyme, MTase-Glo SAH luminescence; measured here: GAMT inhibition; at 40 µM; stronger effect = lower value
# How it was run: as §1
# [3] = target: Histamine N-methyltransferase (Homo sapiens) (UniProt P50135); conditions: purified enzyme, MTase-Glo SAH luminescence; measured here: HNMT inhibition; at 40 µM; stronger effect = lower value
# How it was run: as §1
# [4] = target: Nicotinamide N-methyltransferase (Homo sapiens) (UniProt P40261); conditions: purified enzyme, MTase-Glo SAH luminescence; measured here: NNMT inhibition; at 40 µM; stronger effect = lower value
# How it was run: as §1
# [5] = target: Phenylethanolamine N-methyltransferase (Homo sapiens) (UniProt P11086); conditions: purified enzyme, MTase-Glo SAH luminescence; measured here: PNMT inhibition; at 40 µM; stronger effect = lower value
# How it was run: as §1
# On the % scale 0 is the no-effect control and ±100 the full control effect.
Structure (SMILES),"activity change, negative = inhibition [1]","activity change, negative = inhibition [2]","activity change, negative = inhibition [3]","activity change, negative = inhibition [4]","activity change, negative = inhibition [5]"
CC(C)Oc1ccc(CN2C(=O)c3cc(C4CC4)nn3CC2(C)C(=O)NC2CCCCCC2)cc1 (stereo not given),0.596%,5.06%,1.75%,-2.9%,1.15%
CC(=O)SCC(CC(=O)c1ccc(C)cc1)C(=O)O (stereo not given),-1.62%,7.03%,4.16%,-14.2%,-4.3%
CCOc1ccc(NC(=O)N2Cc3c(sc4c3CCCC4)-n3cccc3C2c2cc(F)cc(F)c2)cc1 (stereo not given),0.463%,0%,4.59%,-0.304%,5.11%
CCCCNC(=O)Cn1ccc2cc(S(=O)(=O)N3CCC(C)CC3)ccc21,1.79%,0.587%,0.673%,0.193%,0.374%
O=S(=O)(O)c1ccc(Nc2ncnc3c2ncn3[C@@H]2O[C@H](CO)[C@@H](O)[C@H]2O)cc1,1.84%,7.58%,13.8%,-4.2%,8.72%
Cc1cc2c(cc3n2CC(C)(C(=O)NC2CCCCCC2)N(c2ccc(Cl)cc2)C3=O)o1 (stereo not given),1.05%,3.32%,7.78%,4.23%,0.643%
CC(C)c1ccc(N2C(=O)c3cc4sccc4n3CC2(C)C(=O)NC2CCCCCC2)cc1 (stereo not given),-1.56%,3.64%,5.49%,4.59%,-0.993%
C/C=C(/C)C(=O)O[C@H]1C=C(CO)C(=O)[C@H](OC(=O)/C(C)=C/CO)[C@H]1C(C)C,-2.91%,2.73%,1.19%,-7.38%,-0.58%
Cc1cc(C#N)c(-c2ccccc2C(=O)N(C(C)C)C(C)C)nc1C,-2.19%,-0.387%,-17.8%,-6.18%,0.881%
CC(C)NC(=O)Cn1nc2n(C(C)C)c(=O)c3ccc(C(=O)NC4CCCCC4)cc3n2c1=O,1.76%,5.49%,5.88%,2.33%,1.97%
CCCN(C)c1nccnc1OC1CCN(C(=O)c2cccc(OC)c2OC)C1 (stereo not given),-6.21%,-11%,-4.43%,-28%,-8.33%
CC(C)CNC(=O)c1ccc2c(=O)n(C)c3nn(Cc4cccc(Cl)c4)c(=O)n3c2c1,0.143%,0%,7.04%,-1.16%,5.79%
COc1cc2c(cc1OC)CN(C(=O)[C@@H](NCc1ccncc1)C(C)(C)C)CC2,-0.606%,0.37%,10.5%,-14.9%,1.42%
CCOC(=O)c1ccc(Nc2nc3c(S(=O)(=O)c4ccc(C)cc4)nnn3c3ccccc23)cc1,-0.104%,0%,8.66%,8.14%,1.34%

# — PubChem BioAssay AID1745853 (National Center for Advancing Translational Sciences (NCATS), 2022)
